# In the supplement of paper PMC8728848:
# This is one part of the list.
# Experiments:
# Test in all cases: glycan array binding signal (z-score within array); higher = stronger binding
# Details in all cases: glycan notation: IUPAC condensed, linker removed
# Gal(a1-3)Gal(b1-4)Glc = molecular target: Gal(a1-3)Gal(b1-4)Glc
# Summary of the method: (§1)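 Arrays were curated from the Consortium for Functional Glycomics database, 3228 in total, and kept only where the protein sequence was available. Binding is expressed as a within-array Z-score. This score was averaged across arrays of the same protein sequence at different concentrations or buffers and across linkers, and negative values can be read as non-binding.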
# Gal(a1-3)Gal(b1-4)GlcNAc = molecular target: Gal(a1-3)Gal(b1-4)GlcNAc
# Summary of the method: as §1
# [1] = molecular target: Gal(a1-3)Gal(b1-4)GlcNAc(b1-2)Man
# Summary of the method: as §1
# [2] = molecular target: Gal(a1-3)Gal(b1-4)GlcNAc(b1-2)Man(a1-3)[Gal(a1-3)Gal(b1-4)GlcNAc(b1-2)Man(a1-6)]Man(b1-4)GlcNAc(b1-4)GlcNAc
# Summary of the method: as §1
# [3] = molecular target: Gal(a1-3)Gal(b1-4)GlcNAc(b1-3)GalNAc
# Summary of the method: as §1
# [4] = molecular target: Gal(a1-3)Gal(b1-4)GlcNAc(b1-6)GalNAc
# Summary of the method: as §1
# [5] = molecular target: Gal(a1-3)Gal(b1-4)[Fuc(a1-3)]GlcNAc
# Summary of the method: as §1
# [6] = molecular target: Gal(a1-3)Gal(b1-4)[Fuc(a1-3)]GlcNAc(b1-2)Man(a1-3)[Gal(a1-3)Gal(b1-4)[Fuc(a1-3)]GlcNAc(b1-2)Man(a1-6)]Man(b1-4)GlcNAc(b1-4)GlcNAc
# Summary of the method: as §1
# Gal(a1-3)GalNAc = molecular target: Gal(a1-3)GalNAc
# Summary of the method: as §1
# [7] = molecular target: Gal(a1-3)[Gal(a1-4)]Gal(b1-4)GlcNAc
# Summary of the method: as §1
# [8] = molecular target: Gal(a1-4)Gal(b1-3)GlcNAc(b1-2)Man(a1-3)[Gal(a1-4)Gal(b1-3)GlcNAc(b1-2)Man(a1-6)]Man(b1-4)GlcNAc(b1-4)GlcNAc
# Summary of the method: as §1
# Gal(a1-4)Gal(b1-4)Glc = molecular target: Gal(a1-4)Gal(b1-4)Glc
# Summary of the method: as §1
# Gal(a1-4)Gal(b1-4)GlcNAc = molecular target: Gal(a1-4)Gal(b1-4)GlcNAc
# Summary of the method: as §1
# [9] = molecular target: Gal(a1-4)Gal(b1-4)GlcNAc(b1-2)Man(a1-3)[Gal(a1-4)Gal(b1-4)GlcNAc(b1-2)Man(a1-6)]Man(b1-4)GlcNAc(b1-4)GlcNAc
# Summary of the method: as §1
# [10] = molecular target: Gal(a1-4)Gal(b1-4)GlcNAc(b1-3)Gal(b1-4)Glc
# Summary of the method: as §1
# Gal(a1-4)GlcNAc = molecular target: Gal(a1-4)GlcNAc
# Summary of the method: as §1
# Gal(a1-6)Glc = molecular target: Gal(a1-6)Glc
# Summary of the method: as §1
# Gal(b1-2)Gal = molecular target: Gal(b1-2)Gal
# Summary of the method: as §1
# Gal(b1-3)Gal = molecular target: Gal(b1-3)Gal
# Summary of the method: as §1
# Gal(b1-3)Gal(b1-4)GlcNAc = molecular target: Gal(b1-3)Gal(b1-4)GlcNAc
# Summary of the method: as §1
# Gal(b1-3)GalNAc = molecular target: Gal(b1-3)GalNAc
# Summary of the method: as §1
# [11] = molecular target: Gal(b1-3)GalNAc(a1-3)[Fuc(a1-2)]Gal(b1-4)Glc
# Summary of the method: as §1
# [12] = molecular target: Gal(b1-3)GalNAc(a1-3)[Fuc(a1-2)]Gal(b1-4)GlcNAc
# Summary of the method: as §1
# Gal(b1-3)GalNAc(b1-3)Gal = molecular target: Gal(b1-3)GalNAc(b1-3)Gal
# Summary of the method: as §1
# [13] = molecular target: Gal(b1-3)GalNAc(b1-3)Gal(a1-4)Gal(b1-4)Glc
# Summary of the method: as §1
# [14] = molecular target: Gal(b1-3)GalNAc(b1-4)Gal(b1-4)Glc
# Summary of the method: as §1
# [15] = molecular target: Gal(b1-3)GalNAc(b1-4)[Neu5Ac(a2-3)]Gal(b1-4)Glc
# Summary of the method: as §1
# Gal(b1-3)GlcNAc = molecular target: Gal(b1-3)GlcNAc
# Summary of the method: as §1
# [16] = molecular target: Gal(b1-3)GlcNAc(a1-3)Gal(b1-4)GlcNAc
# Summary of the method: as §1
# [17] = molecular target: Gal(b1-3)GlcNAc(a1-6)Gal(b1-4)GlcNAc
# Summary of the method: as §1
# Gal(b1-3)GlcNAc(b1-2)Man = molecular target: Gal(b1-3)GlcNAc(b1-2)Man
# Summary of the method: as §1
# [18] = molecular target: Gal(b1-3)GlcNAc(b1-2)Man(a1-3)[Gal(b1-3)GlcNAc(b1-2)Man(a1-6)]Man(b1-4)GlcNAc(b1-4)GlcNAc
# Summary of the method: as §1
# [19] = molecular target: Gal(b1-3)GlcNAc(b1-2)Man(a1-3)[Gal(b1-3)GlcNAc(b1-2)Man(a1-6)]Man(b1-4)GlcNAc(b1-4)[Fuc(a1-6)]GlcNAc
# Summary of the method: as §1
# [20] = molecular target: Gal(b1-3)GlcNAc(b1-2)Man(a1-3)[GlcNAc(b1-4)][Gal(b1-3)GlcNAc(b1-2)Man(a1-6)]Man(b1-4)GlcNAc(b1-4)GlcNAc
# Summary of the method: as §1
# [21] = molecular target: Gal(b1-3)GlcNAc(b1-2)[Gal(b1-3)GlcNAc(b1-6)]Man(a1-6)[Gal(b1-3)GlcNAc(b1-2)Man(a1-3)]Man(b1-4)GlcNAc(b1-4)GlcNAc
# Summary of the method: as §1
# [22] = molecular target: Gal(b1-3)GlcNAc(b1-3)Gal(b1-3)GlcNAc
# Summary of the method: as §1
# [23] = molecular target: Gal(b1-3)GlcNAc(b1-3)Gal(b1-4)Glc
# Summary of the method: as §1
# [24] = molecular target: Gal(b1-3)GlcNAc(b1-3)Gal(b1-4)GlcNAc
# Summary of the method: as §1
# [25] = molecular target: Gal(b1-3)GlcNAc(b1-3)Gal(b1-4)GlcNAc(b1-2)Man(a1-3)[Gal(b1-3)GlcNAc(b1-3)Gal(b1-4)GlcNAc(b1-2)Man(a1-6)]Man(b1-4)GlcNAc(b1-4)GlcNAc
# Summary of the method: as §1
# [26] = molecular target: Gal(b1-3)GlcNAc(b1-3)Gal(b1-4)GlcNAc(b1-2)[Gal(b1-3)GlcNAc(b1-3)Gal(b1-4)GlcNAc(b1-6)]Man(a1-6)[Gal(b1-3)GlcNAc(b1-3)Gal(b1-4)GlcNAc(b1-2)Man(a1-3)]Man(b1-4)GlcNAc(b1-4)[Fuc(a1-6)]GlcNAc
# Summary of the method: as §1
# [27] = molecular target: Gal(b1-3)GlcNAc(b1-3)Gal(b1-4)GlcNAc(b1-3)Gal(b1-4)GlcNAc(b1-2)[Gal(b1-3)GlcNAc(b1-3)Gal(b1-4)GlcNAc(b1-3)Gal(b1-4)GlcNAc(b1-6)]Man(a1-6)[Gal(b1-3)GlcNAc(b1-3)Gal(b1-4)GlcNAc(b1-3)Gal(b1-4)GlcNAc(b1-2)Man(a1-3)]Man(b1-4)GlcNAc(b1-4)[Fuc(a1-6)]GlcNAc
# Summary of the method: as §1
# [28] = molecular target: Gal(b1-3)GlcNAc(b1-3)Gal(b1-4)GlcNAc(b1-6)[Gal(b1-3)GlcNAc(b1-3)]Gal(b1-4)Glc
# Summary of the method: as §1
# [29] = molecular target: Gal(b1-3)GlcNAc(b1-3)Gal(b1-4)[Fuc(a1-3)]GlcNAc
# Summary of the method: as §1
# [30] = molecular target: Gal(b1-3)GlcNAc(b1-3)Gal(b1-4)[Fuc(a1-3)]GlcNAc(b1-6)[Gal(b1-3)GlcNAc(b1-3)]Gal(b1-4)Glc
# Summary of the method: as §1
# [31] = molecular target: Gal(b1-3)GlcNAc(b1-3)GalNAc
# Summary of the method: as §1
binder,measurement,setting,value
"UDA (Urtica dioica), P11218 (protein) MMMRFLSAVVIMSSAMAVGLVSAQRCGSQGGGGTCPALWCCSIWGWCGDSEPYCGRTCENKCWSGERSDHRCGAAVGNPPCGQDRCCSVHGWCGGGNDYCSGSKCQYRCSSSVRGPRVALSGNSTANSIGNVVVTEPLFDQMFSHRKDCPSQGFYSYHSFLVAAESFPAFGTIGDVATRKREVAAFLAHISQATSGERSDVENPHAWGLCHINTTTVTENDFCTSSDWPCAAGKKYSPRGPIQLTHNFNYGLAGQAIGEDLIQNPDLVEKDPIISFKTALWFWMSQHDNKPSCHDIVLNANSAANRIPNKGVIGNIISRAFGHDDFAVRSSSIGFYKRYCDMLGVSYGHDLKYWFDNTPSSEFQRIQMRVAA",glycan array binding signal (z-score),Gal(a1-3)Gal(b1-4)Glc,-0.176
same,glycan array binding signal (z-score),Gal(a1-3)Gal(b1-4)GlcNAc,0.187
same,glycan array binding signal (z-score),[1],-0.18
same,glycan array binding signal (z-score),[2],-0.157
same,glycan array binding signal (z-score),[3],-0.176
same,glycan array binding signal (z-score),[4],-0.179
same,glycan array binding signal (z-score),[5],-0.183
same,glycan array binding signal (z-score),[6],-0.156
same,glycan array binding signal (z-score),Gal(a1-3)GalNAc,-0.17
same,glycan array binding signal (z-score),[7],0.253
same,glycan array binding signal (z-score),[8],-0.031
same,glycan array binding signal (z-score),Gal(a1-4)Gal(b1-4)Glc,-0.183
same,glycan array binding signal (z-score),Gal(a1-4)Gal(b1-4)GlcNAc,-0.101
same,glycan array binding signal (z-score),[9],-0.172
same,glycan array binding signal (z-score),[10],-0.175
same,glycan array binding signal (z-score),Gal(a1-4)GlcNAc,-0.155
same,glycan array binding signal (z-score),Gal(a1-6)Glc,-0.191
same,glycan array binding signal (z-score),Gal(b1-2)Gal,-0.191
same,glycan array binding signal (z-score),Gal(b1-3)Gal,-0.186
same,glycan array binding signal (z-score),Gal(b1-3)Gal(b1-4)GlcNAc,-0.167
same,glycan array binding signal (z-score),Gal(b1-3)GalNAc,-0.178
same,glycan array binding signal (z-score),[11],-0.177
same,glycan array binding signal (z-score),[12],-0.154
same,glycan array binding signal (z-score),Gal(b1-3)GalNAc(b1-3)Gal,-0.178
same,glycan array binding signal (z-score),[13],-0.163
same,glycan array binding signal (z-score),[14],-0.186
same,glycan array binding signal (z-score),[15],-0.189
same,glycan array binding signal (z-score),Gal(b1-3)GlcNAc,-0.184
same,glycan array binding signal (z-score),[16],-0.032
same,glycan array binding signal (z-score),[17],-0.166
same,glycan array binding signal (z-score),Gal(b1-3)GlcNAc(b1-2)Man,-0.182
same,glycan array binding signal (z-score),[18],0.04
same,glycan array binding signal (z-score),[19],-0.156
same,glycan array binding signal (z-score),[20],-0.144
same,glycan array binding signal (z-score),[21],-0.16
same,glycan array binding signal (z-score),[22],-0.165
same,glycan array binding signal (z-score),[23],-0.215
same,glycan array binding signal (z-score),[24],-0.151
same,glycan array binding signal (z-score),[25],-0.157
same,glycan array binding signal (z-score),[26],-0.086
same,glycan array binding signal (z-score),[27],-0.083
same,glycan array binding signal (z-score),[28],-0.094
same,glycan array binding signal (z-score),[29],-0.176
same,glycan array binding signal (z-score),[30],-0.175
same,glycan array binding signal (z-score),[31],-0.175
